The full ranking holds about 33,000 sequences; the median of “E-score (-0.5 to 0.5)” is about -0.04, and the highest 2% start at about 0.36. The list shows a part of the results.
Molecular target: T1, Hmlalpha2 (UniProt P0CY09)
T1 sequence: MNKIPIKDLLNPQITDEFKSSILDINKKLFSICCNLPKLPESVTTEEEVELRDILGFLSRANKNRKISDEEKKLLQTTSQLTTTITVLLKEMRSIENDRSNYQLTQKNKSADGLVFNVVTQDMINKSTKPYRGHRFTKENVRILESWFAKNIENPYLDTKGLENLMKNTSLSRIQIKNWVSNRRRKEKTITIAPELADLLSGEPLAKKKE
Test: PBM E-score (8-mer binding enrichment) (E-score (-0.5 to 0.5)); higher = stronger / more preferred TF binding; most listed sequences are background and not binding sites
Conditions: protein concentration: 200 nM; construct: GST-full length
Method in brief: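 Masliner-normalised scans of fluorescent anti-GST signal were the basis for scoring. That signal came from GST-tagged yeast transcription factors applied at about 100-200 nM to double-stranded universal all-10-mer Agilent arrays on fresh or once-stripped slides. Each ungapped eight-base word, pooled with its reverse complement, received an E-score from the Universal PBM Analysis Suite.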

Sequence	PBM E-score
CCAACTCA	-0.0864
GCATGAGA	-0.0236
GTTCCTAA	0.0497
GGCACAAC	-0.0178
TGTTCCAA	0.0785
CAAAGGTA	0.0262
GCCTAGAA	-0.187
TGAAGAAA	0.149
GAAGACAA	0.0781
CAATAATG	0.117
TCCTATAA	-0.0544
CAGACTGG	-0.158
CCACATCC	-0.219
CTATCCGA	-0.159
ACATTTCC	0.13
GCGAGGGA	-0.344
CCAAATCC	-0.238
ACATGTTG	0.45
GATTCAGC	-0.162
ATAGCGTC	-0.0105
GCCACGCC	-0.225
CACTTCGA	-0.0376
CTACAGGC	-0.0527
GGTTGTAC	0.11
CAAAAATA	0.0676

Sequence	PBM E-score
ATGAACGC	0.113
GTCGAAAC	-0.003
AATCAACG	0.202
ACTGGCTC	-0.169
TATGGACA	0.0965
CCATGAAC	-0.0422
AGAACGGC	-0.102
ACGTTCGC	-0.0695
AGTTGCAC	0.0331
ATGTTAGC	0.342
TAGTTAGA	0.0649
ACTCAATC	-0.0188
CAGGTGCG	-0.0581
AGGTCCCC	-0.226
AGTCGTGC	-0.0317
CGTAATAG	0.246
TAGGTCAA	0.00265
TCCGTCCA	-0.263
ATAGTCTA	0.0205
CCCCCATC	-0.275
CCTAATTA	-0.0238
GTCCTTAA	-0.0541
AATCCGGC	-0.153
ACAAACAA	0.251
CTGCATCC	-0.25

Sequence	PBM E-score
ATATATTC	0.108
CCACCTGC	-0.136
CAGTCATC	-0.169
CCTTTCTC	-0.162
CGTACCGA	-0.135
CATAGAGG	-0.0117
AGCATTAT	0.189
GCGGGTAA	-0.074
GGCCGTAC	-0.00809
ACCCGAAA	-0.206
ACGAGGTC	-0.00914
GGGTATTA	0.0613
CTCATTTC	-0.0194
ATATGTGC	0.00781
AATTAGGC	-0.0388
CGTGAACA	0.263
ATTTGCCC	-0.183
ACTGGTAC	-0.0246
ATACCGAG	-0.184
CGTCATGA	-0.026
ATAGCAGC	-0.22
AAATAAGT	0.133
ATACATAC	0.386
ACCCTAGC	-0.154
GTAGTGGA	0.106

Sequence	PBM E-score
CCCTCCTC	-0.325
ACCACTCG	0.0845
AGTCTTTG	-0.0399
TCTTTCAA	0.00306
GGCCTTGA	-0.162
CTTTGACC	-0.0661
AATCTCTC	-0.00124
ACGTACCA	0.109
CGGATTCA	-0.216
GCATCGGA	0.0192
ACGGTTAG	-0.159
GCTGAGGA	-0.237
TAACAGCA	0.273
AACAGCAC	0.2
AGGAATGC	-0.189
AATCCGAG	-0.0815
AAGCTCTG	-0.0475
GTTTAGTA	0.274
CTAAGCAA	-0.078
ACGAATTG	0.0132
AGTTTCTG	-0.0525
GAGCTTCA	-0.0187
GTTTTGCA	0.142
CGAACGAA	-0.106
AGCTCTCA	-0.0711

Sequence	PBM E-score
CCCAGTGC	-0.128
GATCGAAC	-0.0112
GCGGTTAC	0.0707
CAAGTTTA	0.111
GAGCTCCA	-0.144
AGCATCAC	-0.0807
ATAATTAA	0.346
ACAAGTGT	0.172
ACATGGAG	0.262
AAGACATT	-0.104
GATCGGTA	-0.032
AGCAGGGC	-0.104
ACGATCTG	-0.247
GCACCGCC	-0.256
GCATGAAA	0.104
CTGGTATC	-0.0621
CGCCCTGA	-0.122
ATAAACAC	0.365
GCCAAAAA	0.0368
TGGGACAA	0.0458
CGCCGATC	-0.0788
ACGAACAG	0.0265
ACATTCCT	-0.0716
AAGAACCG	0.117
CATCTCTA	0.00595

Sequence	PBM E-score
GCAACCTA	0.0134
GCGGTTCA	-0.187
GACCGCAA	-0.00729
CCAGCACG	-0.00777
AGCCGAAC	-0.145
CCCCCAAG	-0.224
CTCAGGAC	-0.149
CCTCCAGG	-0.335
ACTTCTAT	0.024
AACTACAT	0.392
CACAAACC	0.00801
ATGCACGA	0.0499
TAACCAAA	0.137
TGGGCCCA	-0.232
CCGACATA	0.165
ACTAGGTA	0.179
AAAAGGCT	-0.126
TGACTAAA	-0.064
CTAAATAC	0.16
CTTGATGA	0.041
CGTCGAAG	-0.00906
ACCTGTCG	0.0455
CGAAGATC	-0.0547
CGTCCATC	-0.167
AGTGGTAA	0.12

Sequence	PBM E-score
ATTGAGAA	0.142
ACCGTCGA	0.0386
GGCGTAAA	0.217
AGGGATTA	0.135
AGAAATCC	-0.137
GAACGGGA	-0.148
ACCCAAGC	-0.264
CGAAGAAG	-0.0393
AATCCGTC	-0.036
ACTACCAC	-0.0168
CCTGAGCA	-0.0367
AGGATACA	0.185
CCTTGGAA	-0.0658
GTGGCGGA	-0.243
CTAGTGCC	-0.226
GACAAGGA	0.144
AAACTCTT	-0.0255
CAGCCACG	-0.129
ACAAGGCA	0.209
ACTACCTG	0.0129
AGTCTCAA	-0.155
GAGTGGCA	-0.285
GTACACAC	0.357
TGCCCGAA	-0.0401
GAGAAGCC	-0.3

Sequence	PBM E-score
ACGCCTTA	0.0621
GAAGTCGC	-0.0638
CCACGGAA	0.0643
GTATCCGA	0.0458
GAGCTACC	-0.059
CCAATAAG	-0.218
GCTGTGCC	-0.165
GGGTCCTA	-0.235
ACTTCCAT	-0.00346
CATTGACC	0.0381
ATTTTCCA	0.0919
CGACAACA	0.295
GGTCGCAC	-0.075
CTTCATAA	0.037
CCACTAGG	-0.347
AATACCGC	-0.00644
ACCGTATC	-0.15
CATATAAG	0.103
CGATTACC	-0.0336
AGGCTAAG	-0.319
TCAGAGAA	0.00131
CTTCGCTA	-0.049
AGACAAAT	0.0751
AGTTCGAA	0.183
CTTCGGTA	-0.141

Sequence	PBM E-score
GCCTCTTA	-0.137
CTCTCAAC	0.00577
CACTGACC	-0.314
GTAACAAA	0.253
AACACAGG	0.247
AGAGGATG	-0.148
GGTATCGA	-0.0151
CTAATGCC	-0.151
ACCTCACG	-0.103
CGTGAACC	-0.107
AGCGCACG	-0.0292
ACAGTAGG	-0.0374
ATTCAGTG	-0.107
AGACTATC	-0.0837
AGGCGTGC	-0.058
TAGGGAGA	-0.283
ATTAGTTA	0.249
CAGCCGAC	-0.156
TCCTTAGA	-0.177
AGACCTGA	-0.155
CACGTCCA	0.0842
GAACACAA	0.319
ATCGCGCA	-0.0535
AATATTAG	0.0923
GCCTCTCC	-0.248

Sequence	PBM E-score
GTCATCAC	-0.196
ATGCTGAA	-0.0203
AAGCCATC	0.0432
ATCCCCTG	-0.262
ACTACAGA	0.119
ACTGCTTG	-0.00682
TGATATAA	0.0539
GAGGGAGC	-0.252
CCGGCGAG	-0.287
AGGTTTAA	0.0644
AAAACGAG	0.0153
CGTCAGTA	-0.115
ATACTCCC	-0.078
AAGTAGTA	0.164
ACCAAGAA	0.0903
CGCGAATC	-0.00176
AGGATGAG	-0.105
ATTTAGCA	0.191
TAGCAGAA	-0.00976
TTCGAAAA	0.156
ACGTGGAA	0.171
CCTCTGGC	-0.286
AGGGAGAC	-0.178
GTTGCCCA	-0.108
AGCTTGTG	0.11

Sequence	PBM E-score
GTGCTACA	0.106
CTTGGCCC	-0.435
CATCTGCA	0.0396
GGATCCCC	-0.428
GTAATCCA	0.29
CCGTTCAA	-0.0425
AACGGAAG	-0.0123
AGAATCAA	-0.034
ACTCCATG	-0.0768
CCGAAACC	-0.276
CACGCTAG	0.00579
GGGCTAAC	-0.101
AACTCATC	0.0672
CGGCGTGC	-0.18
GCAGAGCC	-0.279
CTATTGCC	-0.27
AACACTGA	0.141
AAGCGGCG	0.00275
GAGTGGGC	-0.149
AATTCTGC	-0.061
CACAACCA	0.136
TACATCAA	0.333
AGATTTGG	-0.155
CCGACTCG	-0.274
CACTTCGC	-0.0471

Sequence	PBM E-score
GCCTGTAC	0.101
CGACGAGA	-0.103
CCGGCTCG	-0.166
CATGAAAA	0.221
GGGAACCC	-0.18
AAGTATCC	-0.197
AACTGTAG	-0.0347
CGGACACG	-0.0185
AAATACAA	0.347
CGGGGGTC	-0.191
GCCAGCGA	-0.134
AATAAGTC	0.047
AGACCACT	-0.00203
ACACTAGC	0.083
AACTTATT	0.151
AACGGTTA	-0.0648
CTATGTTC	0.252
AACAGAGA	-0.0298
ATGGGGCC	-0.282
AATAGTAT	0.164
CAATGAAG	0.083
CCATCAAC	0.157
TAACCTTA	-0.0868
GGTGGTGA	-0.192
CGTGTTCA	0.369

Sequence	PBM E-score
AATATACA	0.34
ATTTAAAC	0.262
GGCTGGAC	-0.303
CTCCTTAA	-0.144
AGTCACTG	-0.0556
ATATGTCG	0.17
ACGAACTC	0.126
ACAGTGCT	0.018
ATCTCAAT	-0.0377
CAGGACGG	-0.035
ACGCTAAT	-0.0633
CTGTATTC	0.255
GCTCAAGA	-0.289
GGTGTGTA	0.423
CCGATGAG	-0.178
CCGAATCC	-0.0238
CCATTGCC	-0.198
CGCTCGCC	-0.146
AGTCTCCA	-0.0265
CTCCGCGA	-0.142
CTCTTGCA	-0.119
TAATGGCA	0.0593
ACATCCTC	0.084
ACCTTGAC	-0.00098
ATCTCACC	-0.126

Sequence	PBM E-score
ACCATGAT	-0.0585
GGGTAGAC	-0.301
CGGCCAAG	-0.148
CTAGTCAA	-0.13
TTGGCAAA	0.104
AAACGTGG	-0.0689
AGAGAAAT	-0.0274
GAGGTGCA	-0.0481
AAAGCGCC	-0.202
CGTTCCTA	-0.0489
AGATAATA	0.0717
AAATGAAT	0.0259
ACTGGATC	-0.0567
CAGATCAG	0.205
CGCCACTC	-0.136
ATACTGCA	-0.0288
CGACTATA	0.146
CTATCCAC	-0.0992
ACACACGA	0.322

From the supplement of paper PMC3334620
